# Source: the supplement of paper PMC4604168 (melanoma cell lines)
# Some of the results follow. Most values come without repeats; read them as rough.
# What was measured:
# Test in all cases: cell count relative to DMSO control; melanoma cells; higher = more viable cells
# Conditions in all cases: library dose: low library concentration; 72 h
# [1] = test system: MZ2-MEL
# [2] = test system: MeWo
# [3] = test system: RPMI7951
# [4] = test system: RVH-421
# [5] = test system: SkMel28
# [6] = test system: SkMel2
# [7] = test system: SkMel30
# [8] = test system: UACC62
# [9] = test system: WM115
# [10] = test system: WM1716
# [11] = test system: WM1745
# [12] = test system: WM3526
# [13] = test system: WM3619
# [14] = test system: WM451Lu
# 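Note: cell number obtained by counting DAPI-stained nuclei in high-throughput microscope images with image analysis software, screen run in 1,536-well plates.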
Structure (SMILES),cell count [1] [%],cell count [2] [%],cell count [3] [%],cell count [4] [%],cell count [5] [%],cell count [6] [%],cell count [7] [%],cell count [8] [%],cell count [9] [%],cell count [10] [%],cell count [11] [%],cell count [12] [%],cell count [13] [%],cell count [14] [%]
"CS(=O)(=O)CCNCc1ccc(-c2ccc3ncnc(Nc4ccc(OCc5cccc(F)c5)c(Cl)c4)c3c2)o1 [lapatinib] + Cn1nnc2c(C(N)=O)ncn2c1=O [temozolomide] (first compound 0.8 µM, partner dose 2 µM)",94.6,86.8,94.2,99.4,89.8,96.5,71,83.5,100,101,96.3,91.9,112,98.7
"C=CCNC1=C2C[C@@H](C)C[C@H](OC)[C@H](O)[C@@H](C)/C=C(\C)[C@H](OC(N)=O)[C@@H](OC)/C=C\C=C(/C)C(=O)NC(=CC1=O)C2=O [Tanespimycin] + COc1ccc(Cl)c(Nc2nc3ccccc3nc2NS(=O)(=O)c2cccc(NC(=O)C(C)(C)N)c2)c1 [XL147] (first compound 0.002 µM, partner dose 0.8 µM)",102,88.5,81.1,94,96.8,87.4,86.6,93.2,87.4,90.8,86.7,74.5,61.8,90.5
"C=CCNC1=C2C[C@@H](C)C[C@H](OC)[C@H](O)[C@@H](C)/C=C(\C)[C@H](OC(N)=O)[C@@H](OC)/C=C\C=C(/C)C(=O)NC(=CC1=O)C2=O [Tanespimycin] + C[C@]1(c2nc3c(C(N)=O)cccc3[nH]2)CCCN1 [Veliparib] (first compound 0.002 µM, partner dose 1.4 µM)",100,95,93.2,83.2,101,93.9,87.6,90.6,83.5,88.8,77.9,99.8,101,74.9
"CNC(=O)c1cc(Oc2ccc(NC(=O)Nc3ccc(Cl)c(C(F)(F)F)c3)cc2)ccn1 [sorafenib] + C#Cc1cccc(Nc2ncnc3cc(OCCOC)c(OCCOC)cc23)c1 [erlotinib] (first compound 0.4 µM, partner dose 0.8 µM)",92.3,85.7,77.3,103,89.5,100,83.7,87.5,91.1,94.5,65.6,90.8,108,112
"C[C@@H](Oc1cc(-c2cnn(C3CCNCC3)c2)cnc1N)c1c(Cl)ccc(F)c1Cl [Crizotinib] + Cc1nc(Nc2ncc(C(=O)Nc3c(C)cccc3Cl)s2)cc(N2CCN(CCO)CC2)n1 [dasatanib] (first compound 0.2 µM, partner dose 0.004 µM)",76.7,97.1,78,77.7,58,86.1,84.5,74.6,88.6,94,76.2,90.4,85.3,79.4
"C[C@@H](Oc1cc(-c2cnn(C3CCNCC3)c2)cnc1N)c1c(Cl)ccc(F)c1Cl [Crizotinib] + Nc1cccc2c1CN(C1CCC(=O)NC1=O)C2=O [lenalidomide] (first compound 0.2 µM, partner dose 1 µM)",102,93.7,103,97.5,88.6,97.8,104,103,99.8,96.4,104,79.2,102,98.5
"CS(=O)(=O)CCNCc1ccc(-c2ccc3ncnc(Nc4ccc(OCc5cccc(F)c5)c(Cl)c4)c3c2)o1 [lapatinib] + C=CCNC1=C2C[C@@H](C)C[C@H](OC)[C@H](O)[C@@H](C)/C=C(\C)[C@H](OC(N)=O)[C@@H](OC)/C=C\C=C(/C)C(=O)NC(=CC1=O)C2=O [Tanespimycin] (first compound 0.8 µM, partner dose 0.002 µM)",105,99.6,106,116,89,114,113,108,117,7.48,95.6,96.2,131,123
"C[C@@H](Oc1cc(-c2cnn(C3CCNCC3)c2)cnc1N)c1c(Cl)ccc(F)c1Cl [Crizotinib] + CN1CCN(c2ccc3nc(-c4c(N)c5c(F)cccc5[nH]c4=O)[nH]c3c2)CC1 [Dovitinib] (first compound 0.2 µM, partner dose 0.1 µM)",96.4,96.5,107,83.6,90.9,107,87.6,93.4,82.7,123,97.5,104,118,99.9
"CS(=O)(=O)CCNCc1ccc(-c2ccc3ncnc(Nc4ccc(OCc5cccc(F)c5)c(Cl)c4)c3c2)o1 [lapatinib] + Nc1nc(F)nc2c1ncn2[C@@H]1O[C@H](CO)[C@@H](O)[C@@H]1O [fludarabine] (first compound 0.8 µM, partner dose 0.2 µM)",98.9,43.2,95.2,94.3,88.1,11.7,20.9,88.1,97.3,114,105,39.5,111,69.9
